The results in this text go back to ChEMBL document CHEMBL4888484, “Replenishing the malaria drug discovery pipeline: Screening and hit evaluation of the MMV Hit Generation Library 1 (HGL1) against asexual blood stage Plasmodium falciparum ,using a nano luciferase reporter read-out” (2022).

One may read the % Inhibition as the drop in the measured response relative to a control, in per cent.

About 540 (0.36%) of roughly 150,000 compounds showed an effect of 50% or more. This is one part of the list.

The subject of the experiment is Plasmodium falciparum. Put plainly: Primary screen in NF54 nanoGlo assay, in single point, at 2uM, 72h; a lower Z score goes with more inhibition. Type of experiment: functional, Erythrocyte. Conditions: timepoint 72 hour.
As for `Cc1nc(C)c(-c2nc(-c3cccc(NC(=O)NC(C)C)c3)no2)s1`, the “% Inhibition” value is reported as -8% and the Z score stood at 0.84.
For `COc1ccc(C(C)=O)cc1CNC(C)(C)c1nc(C)cs1` the same measures were -5% and 0.74.
For `Cc1ccccc1[C@H]1CCN(S(=O)(=O)c2c(N)noc2C)C1`, the “% Inhibition” value was -1% and the Z score is given as 0.1.
For `CC(=O)NC1CCCN(C(C(=O)NC2CC2)c2ccc(F)cc2)C1` (centres undefined) the same measures were -34% and 3.97.
With `CCC(CO)NC(=O)C(c1ccccc1)C1CC1` (centres undefined), the “% Inhibition” value is -9% and the Z score is listed as 1.25.
The corresponding values for `Cc1cc(N)n(CC(=O)N(C)Cc2nc(C3CC3)no2)n1` are -8% and 1.17.
As for `CCCCCC(=O)N[C@@H](N1CCCCC1)C(Cl)(Cl)Cl`, the “% Inhibition” value was -7% and the Z score was 0.97.
Consider `O=C(c1ccc(Cl)cc1F)N1CCN(c2ccc3[nH]ncc3c2)C(=O)C1`, for which the “% Inhibition” value is 4% and the Z score is -0.68.
For `Cc1csc(C(=O)NCc2noc3c2COCC3)n1` the same measures were -7% and 1.39.
For `CCOc1ccccc1C(CC)NC(=O)N1CCCNC(=O)C1C` (centres undefined) the same measures were -5% and 0.68.
For the compound `OC[C@@]1(CCc2ccccc2)CCCN(c2ncccn2)C1`, the “% Inhibition” value is listed as -9% and the Z score is given as 1.12.
As to `CNC(=O)c1nnsc1NC(=O)C(F)(F)F`, the “% Inhibition” value was 3% and the Z score is on record as -0.48.
The corresponding values for `N#Cc1cnn2cc(CCOc3ccc(F)cc3)cnc12` are -19% and 3.2.
As to `COC(=O)c1ccccc1NC(=O)NCCn1nnc2cc(S(=O)(=O)N(C)C)ccc21`, the “% Inhibition” value worked out at 46% and the Z score is on record as -7.77.
The corresponding values for `COC(=O)CC[C@]1(C)NC(=O)NC1=O` are 3% and -0.61.
In the case of `O=C(CN1CCn2nc(-c3ccccc3)cc2C1=O)NC1CCCCCC1`, the “% Inhibition” value was -1% and the Z score is reported as 0.13.
As for `CC(C)CC(=O)N1CCc2ccc(OC(C)C(=O)N3CCCC3)cc2C1c1cccc(F)c1` (centres undefined), the “% Inhibition” value is listed as -13% and the Z score worked out at 2.07.
The corresponding values for `COc1cccc(C(=O)N2CCN(C(=O)c3nc[nH]c3C)CC2)c1` are -18% and 2.09.
For `Cc1nc2c(c(N3CCCC3)n1)CCN(C(=O)Cc1n[nH]c(=O)[nH]1)C2` the same measures were 3% and -0.55.
As to `CC(C)(C)OC(=O)NCC(NC(=O)C1CC1(Cl)Cl)C1CC1` (centres undefined), the “% Inhibition” value worked out at 5% and the Z score is -0.57.
With `O=C(Cc1ccc(F)cc1Cl)N1C[C@H]2C[C@H](O)[C@H](O)C[C@H]2C1`, the “% Inhibition” value is -4% and the Z score is 0.61.
Take `C/C=C/Cc1nnc(C(=O)N2CCC[C@@](CO)(CC(C)C)C2)o1`: the “% Inhibition” value worked out at 0% and the Z score stood at 0.02.
Regarding `CCCn1nnnc1CNC1CCCCC1C(C)(C)C` (centres undefined), the “% Inhibition” value came to 32% and the Z score is reported as -3.63.
For the compound `COCCC[C@H]1CCCN(C(=O)c2cnc(O)cn2)C1`, the “% Inhibition” value is -5% and the Z score was 0.65.
Take `CN1C(=O)C(=O)N(CCS(=O)(=O)c2ccc(Cl)cc2)C1=O`: the “% Inhibition” value is -6% and the Z score is recorded as 0.91.
Consider `COc1ccc(OCCNCc2ccc(C(F)(F)F)nc2)cc1`, for which the “% Inhibition” value is listed as -4% and the Z score is on record as 0.64.
The corresponding values for `CCN(Cc1ccc(OC)cc1)Cc1cc(=O)c2c(C)ccc(C)c2[nH]1` are -6% and 0.99.
Regarding `Cn1ccc2c(-c3ccnc4[nH]ncc34)ccnc21`, the “% Inhibition” value stood at 2% and the Z score is -0.33.
For `CCc1ccccc1NC(=O)Cn1cnc2nc(N3CCOCC3)sc2c1=O` the same measures were -10% and 1.18.
As for `CCN(CC)Cc1cccc(NC(=O)c2nccnc2C(=O)NCc2ccc(F)cc2)c1`, the “% Inhibition” value is given as -13% and the Z score was 1.23.
The corresponding values for `CCOC1CC2(CCN(Cc3c(C)nn(C)c3OC)C2)C1` (centres undefined) are -9% and 1.43.
For `CC(=O)N1c2cc(S(=O)(=O)NCCc3ccccc3Cl)c(Br)cc2C[C@@H]1C` the same measures were -5% and 0.5.
On to `CCCn1ccnc1CNc1nc2c(s1)c(C)nn2C`, for which the “% Inhibition” value was -11% and the Z score worked out at 2.21.
The corresponding values for `CC(=O)N(CCc1noc(C2CCC2)n1)[C@H]1CCN(C(=O)c2ccn(C)n2)C1` are -21% and 1.81.
The corresponding values for `O=C(Nc1cccc2ccccc12)[C@@H]1CCCCN1S(=O)(=O)c1ccc(Cl)s1` are -8% and 0.93.
For `C[C@@H](CCc1ccc(F)c(F)c1)NC(=O)c1nccnc1C(N)=O` the same measures were 2% and -0.33.
As for `O=C(Nc1cccnc1)c1ccc2c(c1)OCO2`, the “% Inhibition” value is listed as -14% and the Z score worked out at 1.61.
For the compound `O=C(NCc1ccnc(OC2CCCCC2)c1)NC1CCOC1C1CC1` (centres undefined), the “% Inhibition” value is -7% and the Z score is reported as 0.95.
The corresponding values for `O=C(CCCc1ccccc1)N1CCN(c2nnc3ccc(Cl)cn23)CC1` are -13% and 1.46.
For `Cc1ccccc1[C@H]1CCc2nc(C(=O)NCc3ccccc3)cn2C1` the same measures were 11% and -1.09.
For `CCN1C[C@H](CN(C)C(=O)c2csc(-c3ccc(C)o3)n2)Oc2ccccc21` the same measures were 3% and -0.51.
Turning to `Cc1cccc(C)c1OCCC(=O)NC1C2CCOC2C12CCC2` (centres undefined), the “% Inhibition” value amounted to 20% and the Z score is -2.52.
